Test results taken from PubChem BioAssay AID1345083 (National Center for Advancing Translational Sciences (NCATS), 2018).
The campaign covered roughly 94,000 compounds. About 6,200 (6.6%) were called active. The inconclusive results got no clear call from the source; some entries with a clear call stand among them for comparison. Calls come from the whole dose curve; as a rule, active = well fitted inhibition curve with a large enough effect; inconclusive = small, poorly fitted or top-dose-only effect; inactive = flat fitted curve, though single readings scatter. Where the call is inconclusive, the potency comes from a doubtful curve fit.

Assay: Cytotoxic Profiling in HEK 293 Cell Line of Diverse Libraries Using Quantitative High-Throughput Screening; note: nearly all actives have a fitted effect of over 60% in size
Settings: HEK 293 viability, ATP luminescence (CellTiter-Glo), 48-72 h; series mostly up to 115 µM
Procedure, shortened: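 CellTiter-Glo luminescence (cellular ATP) was read after 48 or 72 hr of compound exposure at 37 degree Celsius. Cells were HEK 293 plated at 250 cells/well.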
Potency is the fitted concentration of half-maximal effect; tags give direction and shape of the fitted curve.

| Compound | Potency |
| --- | --- |
| CC(NC(=O)c1ccc2c(c1)OCO2)C(=O)N1CCN(c2ccccn2)CC1 (centres undefined) | inactive |
| COc1ccc(NC(=O)N2C[C@@H](F)C[C@H]2C(=O)N2CCCCC2)cc1F | inactive |
| O=C(NCc1ccc(F)cc1F)C1CCCCN1Cc1ccc(-c2ccsc2)cc1 (centres undefined) | active: 28.2 µM |
| CNC(=O)[C@@H]1C[C@@H](O)CN1C1CCN(C(=O)C2(c3ccccc3)CC2)CC1 | inactive |
| Cc1ccc(-c2nc(C(=O)N3CCN(c4ccccc4)CC3)no2)cc1 | inconclusive: 89.1 µM [inhibitor, single point] |
| CCCCc1nn(CC(=O)N2CCC(c3ccccc3)CC2)c(=O)n1CC | inactive |
| O=C(c1nc2ccccc2[nH]1)N1CCNc2cnc(Nc3ccc(-n4ccnc4)cc3)nc2C1 | inconclusive: 79.4 µM [inhibitor, partial curve, poor fit] |
| Cc1csc(S(=O)(=O)N2CCCC3(CCC(=O)N(CC4CC4)C3)C2)c1 (centres undefined) | inconclusive: 50.1 µM [inhibitor, partial curve, poor fit] |
| Cn1ncc2c(C(=O)NCC(F)F)cc(-c3cccc(F)c3)nc21 | active: 56.2 µM |
| COCCNC(=O)C1CCCCN1Cc1ccc(-c2cccs2)cc1 (centres undefined) | active: 39.8 µM |
| CCCCCC(=O)Nc1nc2c(s1)C[C@@H]1[C@](C)(CO)[C@H](O)CC[C@@]1(C)[C@@H]2CC(=O)Nc1cccc(O)c1 | inconclusive: 39.8 µM [inhibitor, partial curve, poor fit] |
| COc1cccc(-c2cn3cc(C(=O)NCc4cccs4)nc3s2)c1 | inactive |
| COc1cc(C(=O)N2CCC(Cc3nc(-c4ccccc4)no3)CC2)cc(OC)c1OC | inconclusive: 44.7 µM [inhibitor, partial curve, poor fit] |
| CC1(C)[C@H](Cc2cc(-c3ccccc3)on2)C[C@@H]1NS(=O)(=O)c1ccccc1 | inconclusive: 39.8 µM [inhibitor, full curve] |
| O=C(N[C@H]1[C@H](O)[C@H](O)C[C@@H]1c1ccc(C(F)(F)F)cc1)c1ccc2c(c1)OCCO2 | inconclusive: 112 µM [inhibitor, partial curve] |
| CCOC(=O)C1CCCN(C(=O)c2ccc3oc(-c4cccnc4C)nc3c2)C1 (centres undefined) | inconclusive: 50.1 µM [inhibitor, partial curve, poor fit] |
| O=C(NCc1cccs1)c1nc(-c2cccc(C(F)(F)F)c2)c2cnccn12 | inconclusive: 89.1 µM [inhibitor, single point] |
| O=C(NC1CN(c2ccnc3ccnn23)C1)c1ccc(F)cc1 | inconclusive: 126 µM [inhibitor, single point] |
| C=CCNC(=O)[C@@H]1Cc2cn(Cc3cccnc3)c3cccc(c23)[C@H](CC(C)C)N1 | active: 50.1 µM |
| CCCCOc1ccc(C(=O)N2CCC(c3n[nH]c(=O)n3-c3ccc(C)cc3)CC2)cc1 | inconclusive: 50.1 µM [inhibitor, partial curve, poor fit] |
| OC[C@@H]1O[C@H](CNCc2ccc(F)cc2)[C@H](N2CCN(c3ccccc3)CC2)[C@@H]1O | inconclusive: 79.4 µM [inhibitor, partial curve, poor fit] |
| O=C(c1ccc(Cl)cc1)N1CC2(CCN(Cc3ccc(Cl)cc3)C2)Cc2ccccc21 (centres undefined) | inconclusive: 50.1 µM [inhibitor, partial curve, poor fit] |

| Compound | Potency |
| --- | --- |
| Cc1ccc2[nH]c(CN3CCC(c4cccc(C#N)c4)CC3)cc(=O)c2c1 | inconclusive: 79.4 µM [inhibitor, partial curve, poor fit] |
| O=C(NC1CCN(c2nccc(Nc3ccccc3Cl)n2)CC1)C1CCCC1 | inconclusive: 44.7 µM [inhibitor, partial curve] |
| CN1[C@@H](CCC(=O)NCc2cccs2)CNC(=O)[C@@H]2[C@H]1CCN2Cc1ccc(O)cc1 | inconclusive: 126 µM [inhibitor, single point] |
| CC1Oc2ccc(NC(=O)NCc3ccccc3)cc2CN(C2CCCc3ccccc32)C1=O (centres undefined) | inconclusive: 8.91 µM [inhibitor, full curve, poor fit] |
| CNC(=O)CCn1ncc2cc(OCc3ccccc3-c3ccc(OC)cc3Cl)ccc21 | inconclusive: 50.1 µM [inhibitor, partial curve, poor fit] |
| COc1cccc(NC(=O)C2CC(=O)N(c3n[nH]c4cccc(F)c34)C2)c1 (centres undefined) | inconclusive: 89.1 µM [inhibitor, single point] |
| O=C(c1ccc(Cl)cc1)N1CCNc2cnc(Nc3cccc(C(F)(F)F)c3)nc2C1 | active: 31.6 µM |
| COc1cccc(-c2noc(-c3nc(-c4ccc5c(c4)OCO5)no3)n2)c1OC | inactive |
| N#Cc1ccc(C(=O)Nc2ccc([C@@H](O)[C@H]3COCC(=O)N3Cc3ccccc3F)cc2)cc1 | inconclusive: 50.1 µM [inhibitor, partial curve, poor fit] |
| COc1cccc(-c2cccc(CN3CCCC3C(=O)NCc3cccs3)c2)c1 (centres undefined) | inconclusive: 89.1 µM [inhibitor, partial curve, poor fit] |
| CNC(=O)c1c(C)nc2n1CCC(Nc1ccccc1C)C2 (centres undefined) | inactive |
| CCC(=O)N1Cc2ccccc2CC2(CCCCN2Cc2cccnc2)C1 (centres undefined) | inactive |
| CS(=O)(=O)N1CC2(CCCN(CC3CC3)C2)Cc2ccccc21 (centres undefined) | inactive |
| O=C(NC1CCN(c2cc(-c3ccccc3)[nH]n2)CC1)c1ccc(F)c(Cl)c1 | inconclusive: 39.8 µM [inhibitor, partial curve] |
| COCCOC1CCN(C(=O)Nc2cccc(C)c2)CC1 | inactive |
| O=C(NCc1ccc(F)cc1)c1ccc2nnc(-c3ccc(C(F)(F)F)cc3)n2c1 | inconclusive: 50.1 µM [inhibitor, partial curve, poor fit] |
| O=C(NCc1ccccn1)c1nc2sccn2c1-c1ccncc1 | inactive |
| COCc1nc(-c2ccc(OC3CN(Cc4ccsc4)C3)cc2)no1 | inconclusive: 79.4 µM [inhibitor, partial curve] |
| Cc1nn(-c2ccc(C(C)(C)C)cc2)c(C)c1[C@@H]1C=C[C@@H](NCc2ccco2)C1 | active: 11.2 µM |
| Cc1noc(-c2cccc(OC3CN(C(=O)Cc4ccccc4)C3)c2)n1 | inconclusive: 79.4 µM [inhibitor, partial curve, poor fit] |
| COCc1noc([C@@H]2CN(Cc3ccc(C)cn3)C[C@H]2COC)n1 | inconclusive: 70.8 µM [inhibitor, partial curve, poor fit] |
| CC1=C[C@@H](CN(C)CCN(C)C)[C@H](C(C)C)C[C@H]1Cc1nnc(-c2ccccc2)o1 | active: 44.7 µM |

| Compound | Potency |
| --- | --- |
| O=C(Cc1cccc(Cl)c1)N1CCN(c2ccc3nnc(-c4ccccc4)n3n2)CC1 | active: 44.7 µM |
| COc1cccc(-c2ccnc3nc(-c4ccccc4OC)nn23)c1 | inconclusive: 50.1 µM [inhibitor, partial curve, poor fit] |
| COc1ccccc1-c1cc(C(=O)NC(C)C)c2cnn(C)c2n1 | inactive |
| COCC(=O)NCCc1ncc(C)n1C1CCCCCC1 | inactive |
| COc1ccc(F)cc1-c1ccc(CN2CCCCC2C(=O)NC(C)CCc2ccccc2)cc1 (centres undefined) | active: 25.1 µM |
| Clc1ccc(-c2cnc([C@@H]3COCCN3C3CCC3)[nH]2)cc1 | inconclusive: 89.1 µM [inhibitor, partial curve] |
| CCCCCC(=O)N1CC(=O)N(C2Cc3ccccc3C2)CC(O)C1 (centres undefined) | inconclusive: 63.1 µM [inhibitor, partial curve, poor fit] |
| Cn1nccc1C(=O)N1CCCCCCNC(=O)[C@@H]2C[C@@H](c3nc(Cc4ccccc4)no3)C[C@@H]21 | inconclusive: 100 µM [inhibitor, partial curve, poor fit] |
| COc1ccc(OCC2CN(Cc3ccccc3)[S+](=O)([O-])c3cccnc3O2)cc1 (centres undefined) | inconclusive: 31.6 µM [inhibitor, partial curve] |
| O=c1cc(N2CCOCC2)oc2c(Nc3cccc(Cl)c3)nccc12 | inconclusive: 112 µM [inhibitor, partial curve, poor fit] |
| CC(C)CCC(=O)N1CCN(c2nc3c(s2)CN(C)CC3)CC1 | inconclusive: 56.2 µM [inhibitor, partial curve, poor fit] |
| COC1CN(C(=O)c2cccc(C#N)c2)CCC(=O)N(C)c2ccccc21 (centres undefined) | inconclusive: 31.6 µM [inhibitor, partial curve, poor fit] |
| CC(C)c1ccc(CC(=O)N2CCCc3ncc(C(=O)NCc4cccc(F)c4)cc32)cc1 | inconclusive: 79.4 µM [inhibitor, partial curve, poor fit] |
| COc1ccc(C)cc1NC(=O)c1c(OC)cc(=O)n2c1CCCC2 | inconclusive: 89.1 µM [inhibitor, single point] |
| Cc1ccc(NC(=O)c2cc(-c3ccc(Cl)cc3Cl)c3nncn3n2)cc1 | inactive |
| c1ccc(C2=NOC3(CCN(Cc4cccc5ccccc45)CC3)C2)cc1 | inactive |
| O=C1[C@H]2CN(Cc3cc(F)cc(F)c3)C[C@H]2C(=O)N1Cc1ccc2c(c1)OCO2 | inconclusive: 50.1 µM [inhibitor, partial curve, poor fit] |
| COc1ccc(C(=O)N2CCCC(C(=O)N3CCCC(c4nc5ccncc5[nH]4)C3)C2)cc1 (centres undefined) | inactive |
| O=C(NCc1cccc(F)c1)C1CC(c2ccccc2)CN(C(=O)c2ccc(F)cc2)C1 (centres undefined) | inconclusive: 50.1 µM [inhibitor, partial curve, poor fit] |
| COc1ccc(-c2cc(N3CCCC(NC(=O)c4ccc(Br)o4)C3)n[nH]2)cc1 (centres undefined) | inconclusive: 44.7 µM [inhibitor, partial curve, poor fit] |
